# Data reported in ChEMBL document CHEMBL5606458, “ASAP - ZIKV NS2B-NS3 protease fluorescence single point” (2024).
# The campaign covered roughly 2,700 compounds. About 160 (5.9%) showed an effect of 50% or more. The list shows a part of the results.
# Biological target: Nonstructural protein 3 (Zika virus) (UniProt A0A024AXB9)
# [1] = PRVABC59, Concentration 50.0 uM, Number of replicates 1.0
# [2] = PRVABC59, Concentration 15.0 uM, Number of replicates 1.0
# [3] = PRVABC59, Concentration 10.0 uM, Number of replicates 1.0
# Sequence of UniProt A0A024AXB9 (A0A024AXB9 as listed by the source): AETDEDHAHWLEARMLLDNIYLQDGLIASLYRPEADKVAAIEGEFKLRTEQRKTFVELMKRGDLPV
compound,measurement,setting,value
COc1cc(CS(=O)(=O)C2CCN(C(=O)OCc3ccccc3)CC2)nc(N2CCNCC2)n1,inhibition,"PRVABC59, Concentration 49.5 uM, Number of replicates 2.0, Standard deviation 1.138158616709895 %",3.25%
same,inhibition,"PRVABC59, Concentration 99.01 uM, Number of replicates 2.0, Standard deviation 1.809774885464571 %",6.9%
same,inhibition,"PRVABC59, Concentration 198.0 uM, Number of replicates 2.0, Standard deviation 0.7331386978756042 %",12%
C=CCN(Cc1ccc(F)cc1)C(=O)C1CCN(c2ccc(C=O)cc2)CC1,inhibition,[1],25%
O=C(NCc1ccccc1OCc1ccccc1)c1cc(Cl)ccc1NS(=O)(=O)c1ccc(Oc2ccccc2Cl)cc1,inhibition,[2],5.91%
O=Cc1ccc(N2CCC(C(=O)Nc3ccccc3-c3ccccc3)CC2)cc1,inhibition,[1],22.6%
Cc1cnccc1NC(=O)c1cc(C)n(-c2ccccn2)n1,inhibition,"PRVABC59, Concentration 49.5 uM, Number of replicates 2.0, Standard deviation 2.6411112043159872 %",-1.81%
same,inhibition,"PRVABC59, Concentration 99.01 uM, Number of replicates 2.0, Standard deviation 0.8240702864618352 %",-0.667%
same,inhibition,"PRVABC59, Concentration 198.0 uM, Number of replicates 2.0, Standard deviation 4.266095871930931 %",-2.62%
N#CC1(c2ccccc2)CCN(C(=O)c2cc(Cl)ccc2NS(=O)(=O)c2ccc(Oc3ccccc3Cl)cc2)CC1,inhibition,[2],10.2%
O=C(c1cc(Cl)ccc1NS(=O)(=O)c1ccc(Oc2ccccc2Cl)cc1)N1CC[C@@H](c2ccc(F)cc2)[C@H](COc2ccc3c(c2)OCO3)C1,inhibition,[2],0.523%
CNC(=O)CC[C@H]1CCCN(C(=O)C2CCN(c3ccc(C=O)cc3)CC2)C1,inhibition,[1],24%
O=C(Nc1cccc(F)c1[N+](=O)[O-])c1cc(Cl)ccc1NS(=O)(=O)c1ccc(Oc2ccccc2Cl)cc1,inhibition,[2],22.5%
COc1ccc(CN2CCC(c3c[nH]c4cccnc34)CC2)cc1,inhibition,"PRVABC59, Concentration 49.5 uM, Number of replicates 2.0, Standard deviation 0.21004326604655832 %",0.598%
same,inhibition,"PRVABC59, Concentration 99.01 uM, Number of replicates 2.0, Standard deviation 0.8142417098777236 %",6.55%
same,inhibition,"PRVABC59, Concentration 198.0 uM, Number of replicates 2.0, Standard deviation 1.1254172872302635 %",14.8%
O=Cc1ccc(N2CCC(C(=O)NCCCc3nnc4ccccn34)CC2)cc1,inhibition,[1],26.2%
O=C(NCc1ccccc1OC(F)(F)F)c1cc(Cl)ccc1NS(=O)(=O)c1ccc(Oc2ccccc2Cl)cc1,inhibition,[2],32.6%
C=CCN(Cc1cccc(OC)c1)C(=O)C1CCN(c2ccc(C=O)cc2)CC1,inhibition,[1],22.3%
O=C1[C@@H]2CCCN2[C@@H](c2ccc([N+](=O)[O-])cc2)N1c1ccc([N+](=O)[O-])cc1,inhibition,"PRVABC59, Concentration 49.5 uM, Number of replicates 2.0, Standard deviation 2.338852957072617 %",-3.37%
same,inhibition,"PRVABC59, Concentration 99.01 uM, Number of replicates 2.0, Standard deviation 0.6958571129694138 %",2.46%
same,inhibition,"PRVABC59, Concentration 198.0 uM, Number of replicates 2.0, Standard deviation 1.5598791399729304 %",12.6%
c1ccc2c([C@H]3CCN(Cc4nc[nH]n4)C3)c[nH]c2c1,inhibition,"PRVABC59, Concentration 49.5 uM, Number of replicates 2.0, Standard deviation 3.046935859270677 %",0.746%
same,inhibition,"PRVABC59, Concentration 99.01 uM, Number of replicates 2.0, Standard deviation 3.804317266359065 %",2.65%
same,inhibition,"PRVABC59, Concentration 198.0 uM, Number of replicates 2.0, Standard deviation 3.7934353610053253 %",6.17%
COc1cc(NC(=O)c2cc(Cl)ccc2NS(=O)(=O)c2ccc(Oc3ccccc3Cl)cc2)nc(OC)n1,inhibition,[2],21.5%
CCOC(=O)c1coc(Cn2ncc(C3CCNCC3)c2C)n1,inhibition,"PRVABC59, Concentration 49.5 uM, Number of replicates 2.0, Standard deviation 0.16972261940821706 %",0.506%
same,inhibition,"PRVABC59, Concentration 99.01 uM, Number of replicates 2.0, Standard deviation 0.7758746750349835 %",1.97%
same,inhibition,"PRVABC59, Concentration 198.0 uM, Number of replicates 2.0, Standard deviation 2.5640234224727356 %",6.52%
CCc1ccc([N+](=O)[O-])cc1NC(=O)C1CCN(c2ccc(C=O)cc2)CC1,inhibition,[1],26.3%
O=Cc1ccc(N2CCC(C(=O)N3CCC(Oc4ccccc4)CC3)CC2)cc1,inhibition,[1],26%
COc1ccc(CCCNC(=O)c2cc(Cl)ccc2NS(=O)(=O)c2ccc(Oc3ccccc3Cl)cc2)cc1,inhibition,[2],21.7%
O=Cc1ccc(N2CCC(C(=O)N[C@@H](Cn3ccnc3)c3ccccc3)CC2)cc1,inhibition,[3],21.2%
O=C(NCc1ccccc1)c1cc(Cl)ccc1NS(=O)(=O)c1ccc(Oc2ccccc2Cl)cc1,inhibition,[2],11.2%
Cc1cnccc1NC(=O)Cc1csc(Cc2ccccc2)n1,inhibition,"PRVABC59, Concentration 49.5 uM, Number of replicates 2.0, Standard deviation 3.162795269897305 %",-0.368%
same,inhibition,"PRVABC59, Concentration 99.01 uM, Number of replicates 2.0, Standard deviation 4.368253468547214 %",-0.038%
same,inhibition,"PRVABC59, Concentration 198.0 uM, Number of replicates 2.0, Standard deviation 1.2762874105653153 %",-2.15%
O=C(c1cc(Cl)ccc1NS(=O)(=O)c1ccc(Oc2ccccc2Cl)cc1)N1CCN(c2ccc(F)cc2F)CC1,inhibition,[2],8.71%
CCN(CC)CCC[C@H](C)NC(=O)C1CCN(c2ccc(C=O)cc2)CC1,inhibition,[1],23.4%
O=S(=O)(NC1CCCCC1)c1ccc(Oc2ccccc2Cl)cc1,inhibition,"PRVABC59, Concentration 49.5 uM, Number of replicates 2.0, Standard deviation 3.286338051007469 %",3.44%
same,inhibition,"PRVABC59, Concentration 99.01 uM, Number of replicates 2.0, Standard deviation 2.983820700744522 %",5.81%
same,inhibition,"PRVABC59, Concentration 198.0 uM, Number of replicates 2.0, Standard deviation 2.6312469714980353 %",8.92%
O=Cc1ccc(N2CCC(C(=O)NCc3cccc(F)c3Cl)CC2)cc1,inhibition,[3],25.4%
O=C(Nc1ccc(OC(F)(F)F)cc1Cl)c1cc(Cl)ccc1NS(=O)(=O)c1ccc(Oc2ccccc2Cl)cc1,inhibition,[2],23%
O=C(Nc1ccc(I)c(F)c1)c1cc(Cl)ccc1NS(=O)(=O)c1ccc(Oc2ccccc2Cl)cc1,inhibition,[2],37.6%
O=Cc1ccc(N2CCC(C(=O)N3CCC(NC(=O)c4ccccc4)CC3)CC2)cc1,inhibition,[1],26.6%
O=C(NCc1ccccc1Br)c1cc(Cl)ccc1NS(=O)(=O)c1ccc(Oc2ccccc2Cl)cc1,inhibition,[2],38.5%
O=Cc1ccc(N2CCC(C(=O)N3CCC(n4c(=O)[nH]c5ccccc54)CC3)CC2)cc1,inhibition,[1],29.4%
O=C(Nc1ccc(Br)c(Cl)c1Cl)c1cc(Cl)ccc1NS(=O)(=O)c1ccc(Oc2ccccc2Cl)cc1,inhibition,[2],21.6%
COc1c(C)cnc(CN(C)C(=O)c2cc(Cl)ccc2NS(=O)(=O)c2ccc(Oc3ccccc3Cl)cc2)c1C,inhibition,[2],14.8%
CCS(=O)(=O)N1CCN(C(=O)C2CCN(c3ccc(C=O)cc3)CC2)CC1,inhibition,[1],21.9%
Cc1cc(CO)c2cccc(Cc3cccc(NC(=O)[C@@H]4CC(=O)CCN4)c3)c2n1,inhibition,"PRVABC59, Concentration 49.95 uM, Number of replicates 2.0, Standard deviation 1.827188951744908 %",6.74%
same,inhibition,"PRVABC59, Concentration 99.9 uM, Number of replicates 2.0, Standard deviation 1.0739192331465606 %",21.6%
Cc1cnccc1NC(=O)c1cccc2c1NC(=O)CO2,inhibition,"PRVABC59, Concentration 49.5 uM, Number of replicates 2.0, Standard deviation 0.9011512089054917 %",-7.2%
same,inhibition,"PRVABC59, Concentration 99.01 uM, Number of replicates 2.0, Standard deviation 0.10792223182135952 %",-9.6%
CCn1c2ccccc2c2cc(NC(=O)c3cc(Cl)ccc3NS(=O)(=O)c3ccc(Oc4ccccc4Cl)cc3)ccc21,inhibition,[2],13.9%
Cc1cc(N)cc(CNc2cccc3c(CO)cc(C)nc23)c1,inhibition,"PRVABC59, Concentration 49.95 uM, Number of replicates 2.0, Standard deviation 0.17563299841544527 %",36.2%
same,inhibition,"PRVABC59, Concentration 99.9 uM, Number of replicates 2.0, Standard deviation 0.025091199030293523 %",52.6%
Cc1cc(CO)c2cccc(Cc3cccc(C(=O)N[C@@H](CCN)C(=O)O)c3)c2n1,inhibition,"PRVABC59, Concentration 49.95 uM, Number of replicates 2.0, Standard deviation 2.396260968695063 %",-2.56%
same,inhibition,"PRVABC59, Concentration 99.9 uM, Number of replicates 2.0, Standard deviation 4.032220691467312 %",5.61%
O=C(c1cc(Cl)ccc1NS(=O)(=O)c1ccc(Oc2ccccc2Cl)cc1)N1CCC(c2nc3ccccc3[nH]2)CC1,inhibition,[2],20.5%
O=Cc1ccc(N2CCC(C(=O)Nc3ccc(I)c(F)c3)CC2)cc1,inhibition,[1],22.3%
O=C(Nc1cccc(-c2ccccc2)c1)c1cc(Cl)ccc1NS(=O)(=O)c1ccc(Oc2ccccc2Cl)cc1,inhibition,[2],32.5%
CCc1nc(CCNC(=O)C2CCN(c3ccc(C=O)cc3)CC2)cs1,inhibition,[1],19.1%
Cc1cnccc1NC(=O)c1csc(N2CCCCC2)n1,inhibition,"PRVABC59, Concentration 49.5 uM, Number of replicates 2.0, Standard deviation 6.1003469917591735 %",-5.96%
same,inhibition,"PRVABC59, Concentration 99.01 uM, Number of replicates 2.0, Standard deviation 7.07068107238354 %",-6.37%
same,inhibition,"PRVABC59, Concentration 198.0 uM, Number of replicates 2.0, Standard deviation 1.0147915879580212 %",-4.88%
Cc1ccc([C@H](CNC(=O)C2CCN(c3ccc(C=O)cc3)CC2)N(C)C)cc1,inhibition,[1],19.9%
Cc1cc(CO)c2cccc(NC(=O)c3ccc(-c4ccccn4)s3)c2n1,inhibition,"PRVABC59, Concentration 49.95 uM, Number of replicates 2.0, Standard deviation 1.3900261182154205 %",0.82%
same,inhibition,"PRVABC59, Concentration 99.9 uM, Number of replicates 2.0, Standard deviation 1.1842819360840948 %",7.83%
CN(Cc1cccc2cccnc12)C(=O)c1cc(Cl)ccc1NS(=O)(=O)c1ccc(Oc2ccccc2Cl)cc1,inhibition,[2],26.2%
O=C(c1ccn([C@H]2CCCNC2)n1)N1CCO[C@@H](c2n[nH]c(CO)n2)C1,inhibition,"PRVABC59, Concentration 49.5 uM, Number of replicates 2.0, Standard deviation 3.0216142562611923 %",-2.13%
same,inhibition,"PRVABC59, Concentration 99.01 uM, Number of replicates 2.0, Standard deviation 3.462904886608658 %",-2.3%
same,inhibition,"PRVABC59, Concentration 198.0 uM, Number of replicates 2.0, Standard deviation 3.223872617761246 %",-2.16%
COc1cc(COc2cc(C)c(C)nn2)nc(N2CCNCC2)n1,inhibition,"PRVABC59, Concentration 49.5 uM, Number of replicates 2.0, Standard deviation 3.3161813072073656 %",-1.34%
same,inhibition,"PRVABC59, Concentration 99.01 uM, Number of replicates 2.0, Standard deviation 3.3762495857609713 %",1.73%
same,inhibition,"PRVABC59, Concentration 198.0 uM, Number of replicates 2.0, Standard deviation 2.9412727828231984 %",5.59%
O=C(NCCNC(=O)c1cc(Cl)ccc1NS(=O)(=O)c1ccc(Oc2ccccc2Cl)cc1)c1ccccc1Cl,inhibition,[2],25%
CCN(Cc1cccc(Cl)c1)C(=O)c1cc(Cl)ccc1NS(=O)(=O)c1ccc(Oc2ccccc2Cl)cc1,inhibition,[2],29.5%
CNC(=O)c1cc(Cl)ccc1NC(=O)[C@H]1CCN(c2ccc(Cl)c(Cl)c2)C1=O,inhibition,"PRVABC59, Concentration 49.5 uM, Number of replicates 2.0, Standard deviation 2.496560479347894 %",2.4%
same,inhibition,"PRVABC59, Concentration 99.01 uM, Number of replicates 2.0, Standard deviation 3.1993564176484743 %",2.43%
same,inhibition,"PRVABC59, Concentration 198.0 uM, Number of replicates 2.0, Standard deviation 3.3178510389048217 %",1.41%
